Assay results taken from PubChem BioAssay AID686979 (National Center for Advancing Translational Sciences (NCATS), 2013).
Screen size: about 420,000 compounds; about 50,000 (12%) were called active. The shares of active, inactive and inconclusive entries below differ from those in the screen. The call rests on the fitted dose curve; in most records, active means well fitted inhibition curve with a large enough effect; inconclusive means small, poorly fitted or top-dose-only effect; inactive means flat fitted curve, though single readings scatter. No potency is given beside an inconclusive call; the fits are too rough.

test: qHTS for Inhibitors of human tyrosyl-DNA phosphodiesterase 1 (TDP1): qHTS in cells in presence of CPT; settings: chicken DT40 Tdp1-/-;hTDP1 cells + 20 nM CPT, ATP luminescence, 48 h; series mostly up to 46.2 µM; further: nearly all actives have a fitted effect of over 55% in size
In short: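 Chicken DT40 Tdp1-/- cells complemented with human TDP1, 400 cells/well, exposed to compounds plus 20 nM camptothecin for at least 48 h at 37 C; viability read as ATP content by CellTiter-Glo luminescence.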
Potency means the concentration at half of the fitted maximal effect; tags describe the fitted curve by direction and shape.

| SMILES | Potency |
| --- | --- |
| O=C(Nc1ccccc1)N1CCCC2(CCN(C(=O)c3cnccn3)CC2)C1 | inactive |
| O=C(CSc1nnc(-c2cccnc2)n1Cc1ccco1)Nc1nc(-c2ccc(F)cc2)cs1 | inconclusive [inhibitor, partial curve] |
| CC(Oc1ccccc1F)C(=O)NNC(=O)CC(C)c1ccccc1 (centres undefined) | inactive |
| Cc1cc(C)cc(OCC(=O)Nc2ccccc2N2CCCCC2)c1 | inconclusive [inhibitor, single point] |
| Cc1ccccc1C(C)NC(=O)COC(=O)Cn1cc(C(F)(F)F)ccc1=O (centres undefined) | inconclusive [inhibitor, single point] |
| CCc1ccc(C2CC(=O)Nc3c2c(C)nn3-c2nc(C)cc(C)n2)cc1 (centres undefined) | active: 20.6 µM |
| CCOc1ccc(-c2nnc(SCC(=O)NCc3ccccc3)nc2-c2ccc(OCC)c(OC)c2)cc1OC | inconclusive [inhibitor, single point] |
| CN(CC(=O)Nc1ccc(Cl)cc1)C(=O)c1ccc(S(=O)(=O)Nc2ccccc2)cc1 | inconclusive [inhibitor, partial curve, poor fit] |
| CSCC[C@H](NC(=O)c1ccc2c(c1)OCO2)c1nnc2ccccn12 | inactive |
| COc1ccc(N=Cc2ccc(-c3ccccc3)o2)cc1 | inactive |
| CCOc1ccccc1NC(=O)Cn1cnc2sc(C)c(S(=O)(=O)N3CCC(C)CC3)c2c1=O | inconclusive [inhibitor, single point] |
| COc1ccc(CNC(=S)NC(C)CCc2ccccc2)cc1 (centres undefined) | inconclusive [inhibitor, single point] |
| CCCCOc1cccc(C(=O)Nc2ccc3oc(-c4cccnc4)nc3c2)c1 | inconclusive [inhibitor, single point] |
| O=C(Cc1cccs1)N/N=C\c1ccc([N+](=O)[O-])s1 | active: 8.2 µM |
| Cc1cc(C)cc(-n2c(SCC(N)=O)nc3c(oc4ccccc43)c2=O)c1 | inconclusive [inhibitor, single point] |
| CC(C)c1ccc(CNC(=O)C2CCCN2S(=O)(=O)c2ccccc2)cc1 (centres undefined) | inconclusive [inhibitor, partial curve] |
| Nc1nc(SCC(=O)N2CCCC2)[nH]c(=O)c1-c1ccccc1 | inconclusive [inhibitor, single point] |
| COc1ccc(CNC(=O)Nc2nc(C(N)Cc3ccc(C(F)(F)F)cc3)cs2)cc1 (centres undefined) | inconclusive [inhibitor, single point] |
| CC1C(=O)C(C)C(c2ccc(Br)cc2)NC1c1ccc(Br)cc1 (centres undefined) | inconclusive [inhibitor, single point] |
